The whole screen tested about 120,000 compounds, of which about 5,300 (4.4%) were called active. The inconclusive results got no clear call from the source; some entries with a clear call stand among them for comparison. The call rests on the fitted dose curve; in most records, active means well fitted inhibition curve with a large enough effect; inconclusive means small, poorly fitted or top-dose-only effect; inactive means no such curve, though single readings can be large or run the other way. A potency beside an inconclusive call is a rough fit, not a confirmed value.
assay: qHTS Primary assay for Inhibitors of Plasmodium falciparum Dd2 growth in vitro; further: nearly all actives have a fitted effect of over 65% in size;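 on activity, negative = inhibition: plate controls were DMSO vehicle for no effect and reference drug for full effect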; settings: P. falciparum Dd2 growth, SYBR Green, 72 h; activity, negative = inhibition: at 28.9 µM (top of the series) unless noted; series mostly up to 28.9 µM
Method in brief: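 Infected erythrocytes (Dd2, 0.3% parasitemia, 2.5% hematocrit final) are added to compound in RPMI-1640/Albumax II medium, grown 72 h at 37C in low oxygen, then lysed with saponin/Triton-X containing SYBR Green and read by fluorescence.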
Potency means the concentration at half of the fitted maximal effect; tags describe the fitted curve by direction and shape.

SMILES | Potency | activity, negative = inhibition | outcome
CN(C)CCCC(=O)N1Cc2ccccc2CC2(CCCCN2Cc2ccccc2)C1 (stereo not given) | inconclusive: 6.31 µM [inhibitor, partial curve] |  | 
Cc1oc2ncn(CC(C)C)c(=O)c2c1C(=O)NCCc1ccccc1 | inconclusive: 20 µM [inhibitor, single point] |  | 
Cc1cc(NC(=O)c2ccc3c(c2)N(C)C2CCCCCN2C3=O)ccc1Br (stereo not given) | inconclusive: 6.31 µM [inhibitor, partial curve, poor fit] |  | 
Cc1ccc2c(c1)-c1c(cnn1CC(=O)N1CCN(c3ccccc3F)CC1)CO2 | inconclusive: 12.6 µM [inhibitor, single point] |  | 
Cc1nnc(-c2cc(-c3cccc(F)c3)ccn2)n1CCc1ccccc1 |  | inactive: -11.2% [at 44.1 µM] | 
COc1cc2c(cc1OCc1ccccc1)N(C(=O)c1ccn(C)n1)CC21CCN(C)CC1 | inconclusive: 1.78 µM [inhibitor, partial curve] |  | 
Cc1ccc(CNc2oc(-c3ccc(COc4ccc(C)cc4)o3)nc2C#N)cc1 | inconclusive: 11.2 µM [inhibitor, single point] |  | 
Cc1ccc(NC(=O)c2c(C)nc3sc(C(=O)Nc4ccc(F)cc4)c(N)c3c2-c2ccc(C)o2)c(C)c1 | active: 3.55 µM |  | 
Cc1nn(C)cc1CN(C)CC1(O)CCCN(Cc2ccc(F)cc2)C1=O (stereo not given) |  |  | inactive
Cc1nn2c(c1-c1ccccc1[S+](C)(=O)[O-])N(C(=O)c1cccc(O)c1)CCC2 |  | inactive: 14.2% [at 44.1 µM] | 
COc1ccc(NC(=O)Nc2cccc(-c3ccc(N4CCOCC4)nn3)c2)cc1Cl | inconclusive: 17.8 µM [inhibitor, single point] |  | 
O=C(C1CCCCC1)N1C[C@@H]2C[C@H](C1)c1c(-c3ccc(Cl)cc3)ccc(=O)n1C2 | inconclusive: 12.6 µM [inhibitor, single point] |  | 
Cc1ccoc1C(=O)N1CC[C@@H](c2sccc2C)[C@H](O)C1 |  | inactive: -18.1% | 
COc1ccc(CCNC(=O)c2c(C)noc2-c2ccc(OC(F)(F)F)cc2)cc1OC |  |  | inactive
COc1ccccc1CNc1cc(C)nc2nc(-c3ccc(C)cc3)nn12 | inconclusive: 7.94 µM [inhibitor, single point] |  | 
Cc1ccc2nc(NC(=O)CSc3nccn3-c3ccc(Cl)cc3)sc2c1 |  |  | inactive
CC(C)CN1C(=O)CO[C@H](c2ccc(NC(=O)C3CCCC3)cc2)[C@H]1CO | inconclusive: 0.794 µM [inhibitor, full curve, poor fit] |  | 
O=C1N(Cc2ccc(F)cc2)C[C@H]2CN(Cc3cnc4ccccc4c3)CCN12 | inconclusive: 31.6 µM [inhibitor, single point] |  | 
Cn1cnc2ccc(Nc3cccc(F)c3)nc2c1=O | inconclusive: 25.1 µM [inhibitor, partial curve] |  | 
COc1ccc(C(=O)N2[C@@H]3CC[C@H]2CC(NC(=O)c2ccncc2)C3)c(OC)c1 (stereo not given in full) |  | inactive: 1.71% | 

SMILES | Potency | activity, negative = inhibition | outcome
O=C(CSc1nnc(-c2ccccc2F)o1)Nc1cccc(C(F)(F)F)c1 | inconclusive: 17.8 µM [inhibitor, single point] |  | 
O=C(c1nc(-c2cccc(C(F)(F)F)c2)c2ccccn12)N1CCCC1 | inconclusive: 8.91 µM [inhibitor, partial curve, poor fit] |  | 
CCCc1nc2ccccc2n1CC(O)COc1ccc(C(=O)OC)cc1 (stereo not given) | inconclusive: 17.8 µM [inhibitor, single point] |  | 
COc1ccc(-n2c(SCC(=O)N3CCc4ccccc43)nc3c([nH]c4ccccc43)c2=O)cc1 | inconclusive: 17.8 µM [inhibitor, single point] |  | 
CN(Cc1ccccc1)c1ccc2nnc(-c3ccccn3)n2n1 | inconclusive: 7.94 µM [inhibitor, partial curve] |  | 
CC(C)N1C(=O)C(CC(=O)N(C)Cc2cccnc2)=C2CCCCC21 (stereo not given) | inconclusive: 1.58 µM [inhibitor, full curve, poor fit] |  | 
COc1ccccc1Cc1nc2ccccc2nc1SCC(=O)Nc1cc(Cl)ccc1OC | inconclusive: 3.16 µM [inhibitor, partial curve, poor fit] |  | 
COc1ccc2[nH]c3c(c2c1)CCN(C)C31CCN(C(=O)c2cc(C)nn2C)CC1 |  |  | inactive
Cc1ccc(CNC(=O)c2cnn(-c3cccc(C)c3)c2C2CCN(C(=O)OC(C)(C)C)CC2)cc1 | inconclusive: 3.98 µM [inhibitor, partial curve] |  | 
Cc1ccc(NC(=O)c2cc3nc(-c4ccccc4)cc(-c4ccccc4)n3n2)cc1 |  | inactive: 45.1% | 
O=C1NC2(CCCN([S+](=O)([O-])c3cccs3)C2)Oc2ccccc21 (stereo not given) | inconclusive: 8.91 µM [inhibitor, partial curve, poor fit] |  | 
CS(=O)(=O)N(Cc1cccnc1)C1CN(C(=O)CCc2c[nH]c3ccccc23)C1 |  | inactive: -11.2% | 
CCC1CCCCN1S(=O)(=O)c1cc(C(=O)Nc2ccc(C)c(F)c2)ccc1F (stereo not given) | inconclusive: 15.8 µM [inhibitor, single point] |  | 
COc1cc(NC(=O)Cn2c(=O)n(CC3CCCO3)c(=O)c3ccccc32)cc(OC)c1 (stereo not given) | inconclusive: 1 µM [inhibitor, full curve] |  | 
CCOc1ccc(CCNc2nc3ccccc3n3c(C)nnc23)cc1OCC | inconclusive: 11.2 µM [inhibitor, partial curve] |  | 
COc1ccc(C(=O)Nc2nnc(C(C)C)s2)cc1OC | inconclusive: 7.08 µM [inhibitor, partial curve] |  | 
COc1ccccc1CNC(=O)C[C@@H]1c2nc(-c3cccnc3)sc2C[C@@H]2[C@](C)(CO)[C@H](O)CC[C@]21C | inconclusive: 10 µM [inhibitor, partial curve] |  | 
COCc1ncc(CN2CC[C@@H](c3ccc4ccccc4c3)[C@H](O)C2)cn1 | inconclusive: 8.91 µM [inhibitor, single point] |  | 
COCCNc1cc(-c2ccc3ccccc3n2)c2cc[nH]c2n1 | inconclusive: 5.62 µM [inhibitor, partial curve, poor fit] |  | 
NCCc1nc2cccnc2n1-c1ccccc1 | inconclusive: 10 µM [inhibitor, single point] |  | 

Source: PubChem BioAssay AID1347417 (National Center for Advancing Translational Sciences (NCATS), 2020)
